Consider 153 variants from a collection of fitness landscapes (doi:10.1016/j.celrep.2020.107928).

Sequences and labels used below:
B1: Caulobacter ParB omega fusion; a variant is named by its letters at X, in order, B8GW30 (parent)
chain: MESVVVGEPGMSEGRRGLGRGLSALLGEVDAAPAQAPGEQLGGSREAPIEILQRNPDQPRRTFREEDLEDLSNSIREKGVLQPILVRPSPDTAGEYQIVAGERAWRAAQRAGLKTVPIMVRELDDLAVLEIGIIENVQRADLNVLEEALSYKVLMEKFERTQENIAQTIGKSXSHVANXMRLLXLPDEVQSYLVSGELTAXHARAIAAAADPVALAKQIIEGGLSVRETEALARKAPNLSAGKSKGGRPPRVKDTDTQALESDLSSVLGLDVSIDHRGSTGTLTITYATLEQLDDLCNRLTRGI

Over roughly 81,000 sequences, “one-hybrid fitness for binding parS DNA” has its median near -0.17; the highest 2% begin near 0.51. This is one part of the list.

The variants in this assay derive from B1. As to the kind of experiment: one-hybrid fitness for binding parS DNA (scaled: cognate 1, non-cognate 0); higher = stronger binding. Particulars: with parS DNA site. In a few lines:
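The reporter was HIS3, with the binding site 19 bp from the promoter, in E. coli USO used for bacterial one-hybrid selection of Caulobacter ParB libraries with four specificity codons randomised. Growth was on M9 lacking histidine, with 0.1 mM IPTG and 5 mM 3-AT, for 48 hours at 37°C. Illumina sequencing covered plasmids before and after selection; three replicate libraries were pooled and variants with under 10 reads dropped. A fitness score is the log change in variant-to-wild-type read ratio, rescaled to the cognate and non-cognate references.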
As to PYPL, the “one-hybrid fitness for binding parS DNA” value is ≤ 0.2. Regarding HNDV, the “one-hybrid fitness for binding parS DNA” value was ≤ 0.2. Then PLCP, with ≤ 0.2; and FVTR, with ≤ 0.2; and NGQR, with ≤ 0.2.

Turning to RGIT, the “one-hybrid fitness for binding parS DNA” value came out at 0.278. Turning to KAIY, the “one-hybrid fitness for binding parS DNA” value is ≤ 0.2.

KVTR: the “one-hybrid fitness for binding parS DNA” value was ≤ 0.2. For QCGL the value was ≤ 0.2; for NFTP, ≤ 0.2; for TRNT, ≤ 0.2. Regarding NGPG, the “one-hybrid fitness for binding parS DNA” value is ≤ 0.2. Then DCDA, with ≤ 0.2.

On to MMRV, for which the “one-hybrid fitness for binding parS DNA” value is ≤ 0.2. Then QEHG, with ≤ 0.2. On to QSPK, for which the “one-hybrid fitness for binding parS DNA” value is ≤ 0.2. Consider ACPL, for which the “one-hybrid fitness for binding parS DNA” value is ≤ 0.2. For WWKC the value was ≤ 0.2. Then PLQN, with ≤ 0.2.

For DPDA, the “one-hybrid fitness for binding parS DNA” value is ≤ 0.2. Then MRAL, with ≤ 0.2; and SPII, with ≤ 0.2; and SHCC, with ≤ 0.2. For CMRR the value was ≤ 0.2. AHFD: the “one-hybrid fitness for binding parS DNA” value is ≤ 0.2. Turning to AVVW, the “one-hybrid fitness for binding parS DNA” value is ≤ 0.2. Then MLRR, with ≤ 0.2. For SYTK the value was ≤ 0.2; for KIRA, ≤ 0.2.

As to TWRV, the “one-hybrid fitness for binding parS DNA” value was ≤ 0.2.

On to VPLK, for which the “one-hybrid fitness for binding parS DNA” value is ≤ 0.2.

Take QFPW: the “one-hybrid fitness for binding parS DNA” value was ≤ 0.2. For LHKS the value was ≤ 0.2; for PDLL, ≤ 0.2; for WFEC, ≤ 0.2.

In the case of QDNW, the “one-hybrid fitness for binding parS DNA” value is ≤ 0.2. Turning to WDAS, the “one-hybrid fitness for binding parS DNA” value was ≤ 0.2. For DRDS the value was ≤ 0.2; for QWNS, ≤ 0.2; for ELMM, ≤ 0.2.

Take IYNS: the “one-hybrid fitness for binding parS DNA” value is ≤ 0.2.

For EKSF, the “one-hybrid fitness for binding parS DNA” value is ≤ 0.2. For QGSM the value was ≤ 0.2. For PAPI the value was ≤ 0.2; for QLGY, ≤ 0.2; for GFRS, ≤ 0.2. With TWMR, the “one-hybrid fitness for binding parS DNA” value was ≤ 0.2.

RRMT: the “one-hybrid fitness for binding parS DNA” value is 0.6.

As to SVLY, the “one-hybrid fitness for binding parS DNA” value is ≤ 0.2.

As for NKHC, the “one-hybrid fitness for binding parS DNA” value is ≤ 0.2. Then VCDC, with ≤ 0.2; and FYLT, with ≤ 0.2; and GHAM, with ≤ 0.2. Then QESP, with ≤ 0.2. Regarding MCHW, the “one-hybrid fitness for binding parS DNA” value was ≤ 0.2. Consider WPAT, for which the “one-hybrid fitness for binding parS DNA” value is ≤ 0.2. In the case of SADN, the “one-hybrid fitness for binding parS DNA” value was ≤ 0.2. Consider VPTT, for which the “one-hybrid fitness for binding parS DNA” value is ≤ 0.2. Turning to NRGR, the “one-hybrid fitness for binding parS DNA” value is ≤ 0.2. Then DMLG, with ≤ 0.2. Then YLAE, with ≤ 0.2; and VFYW, with ≤ 0.2; and VVKG, with ≤ 0.2. For PEWR the value was ≤ 0.2; for KAET, ≤ 0.2. As to WILL, the “one-hybrid fitness for binding parS DNA” value is ≤ 0.2. As to QEPY, the “one-hybrid fitness for binding parS DNA” value is ≤ 0.2. For AIKS, the “one-hybrid fitness for binding parS DNA” value was ≤ 0.2. For PLQG the value was ≤ 0.2; for HHKR, ≤ 0.2. For CWMR the value was ≤ 0.2. For the variant QICM, the “one-hybrid fitness for binding parS DNA” value is ≤ 0.2.

With SRDR, the “one-hybrid fitness for binding parS DNA” value is ≤ 0.2. Then PHGK, with ≤ 0.2; and LFMC, with ≤ 0.2; and QDRK, with ≤ 0.2. Then RGIC, with 0.422; and EQSA, with ≤ 0.2. Take TRIT: the “one-hybrid fitness for binding parS DNA” value is ≤ 0.2.

On to VDYS, for which the “one-hybrid fitness for binding parS DNA” value is ≤ 0.2.

In the case of DHSL, the “one-hybrid fitness for binding parS DNA” value is ≤ 0.2. Then TRNP, with ≤ 0.2; and EDRS, with ≤ 0.2; and NRFI, with ≤ 0.2. Then TANV, with ≤ 0.2. For PRNA the value was ≤ 0.2; for PISF, ≤ 0.2. Regarding EPPT, the “one-hybrid fitness for binding parS DNA” value was ≤ 0.2. Then VKPC, with ≤ 0.2; and HLRG, with ≤ 0.2. For CFGK the value was ≤ 0.2; for GPDG, ≤ 0.2; for SPVC, ≤ 0.2. Then ATFN, with ≤ 0.2; and APTF, with ≤ 0.2; and LRLD, with ≤ 0.2.

WDMS: the “one-hybrid fitness for binding parS DNA” value is ≤ 0.2. For RYSF the value was ≤ 0.2. In the case of QFTK, the “one-hybrid fitness for binding parS DNA” value was ≤ 0.2. Then SDTW, with ≤ 0.2; and PAAP, with ≤ 0.2; and TRTC, with ≤ 0.2. In the case of VIPT, the “one-hybrid fitness for binding parS DNA” value is ≤ 0.2. Then DLFS, with ≤ 0.2; and FMNC, with ≤ 0.2. Regarding FRTY, the “one-hybrid fitness for binding parS DNA” value is ≤ 0.2. As to WICG, the “one-hybrid fitness for binding parS DNA” value was ≤ 0.2. On to IDPW, for which the “one-hybrid fitness for binding parS DNA” value was ≤ 0.2. In the case of CLAT, the “one-hybrid fitness for binding parS DNA” value was ≤ 0.2. Consider YHMG, for which the “one-hybrid fitness for binding parS DNA” value is ≤ 0.2. Then WGPL, with ≤ 0.2.

Turning to KQPK, the “one-hybrid fitness for binding parS DNA” value was ≤ 0.2. On to KQRH, for which the “one-hybrid fitness for binding parS DNA” value was ≤ 0.2. Then SSTN, with ≤ 0.2. In the case of GRWS, the “one-hybrid fitness for binding parS DNA” value was ≤ 0.2.

With CSVG, the “one-hybrid fitness for binding parS DNA” value is ≤ 0.2. Then PEIL, with ≤ 0.2.

Consider KDFR, for which the “one-hybrid fitness for binding parS DNA” value is ≤ 0.2. For LGID the value was ≤ 0.2. In the case of RSGG, the “one-hybrid fitness for binding parS DNA” value stood at 0.998. In the case of VASL, the “one-hybrid fitness for binding parS DNA” value was ≤ 0.2. Regarding ARNW, the “one-hybrid fitness for binding parS DNA” value was ≤ 0.2. For the variant NCLE, the “one-hybrid fitness for binding parS DNA” value was ≤ 0.2. Then DESK, with ≤ 0.2; and MVTG, with ≤ 0.2.

On to ITQC, for which the “one-hybrid fitness for binding parS DNA” value is ≤ 0.2. For SLWF, the “one-hybrid fitness for binding parS DNA” value is ≤ 0.2. As for SNAS, the “one-hybrid fitness for binding parS DNA” value was ≤ 0.2. Then DSHN, with ≤ 0.2. CRHY: the “one-hybrid fitness for binding parS DNA” value is ≤ 0.2. In the case of SAPF, the “one-hybrid fitness for binding parS DNA” value is ≤ 0.2. As for QKIH, the “one-hybrid fitness for binding parS DNA” value was ≤ 0.2.

Regarding IMDT, the “one-hybrid fitness for binding parS DNA” value was ≤ 0.2. In the case of DMFC, the “one-hybrid fitness for binding parS DNA” value was ≤ 0.2. Then DQHG, with ≤ 0.2; and HDPS, with ≤ 0.2. Then ANTP, with ≤ 0.2; and FHFR, with ≤ 0.2; and KTQD, with ≤ 0.2.

As to DVTL, the “one-hybrid fitness for binding parS DNA” value is ≤ 0.2. For QSHW the value was ≤ 0.2; for PFKM, ≤ 0.2; for WKPE, ≤ 0.2. Then LYGR, with ≤ 0.2; and VAPL, with ≤ 0.2. Take GHAT: the “one-hybrid fitness for binding parS DNA” value was ≤ 0.2.

ALSW: the “one-hybrid fitness for binding parS DNA” value was ≤ 0.2. As for NASM, the “one-hybrid fitness for binding parS DNA” value was ≤ 0.2.

For the variant MYRS, the “one-hybrid fitness for binding parS DNA” value is ≤ 0.2.

Consider KWWS, for which the “one-hybrid fitness for binding parS DNA” value was ≤ 0.2.

Consider GSQW, for which the “one-hybrid fitness for binding parS DNA” value is ≤ 0.2. In the case of QSLK, the “one-hybrid fitness for binding parS DNA” value is ≤ 0.2.

On to RNSM, for which the “one-hybrid fitness for binding parS DNA” value was 0.238.
